Reference: PubChem BioAssay AID463173 (ICCB-Longwood Screening Facility, Harvard Medical School, 2010)
Among all 52,000 compounds or so, about 4,300 (8.3%) were called active. Cut-off read from the data, not from the text of the source: active = survival mostly below about 52% (no sharp cut-off); inactive = mostly above about 56%. Some of the results follow.

What follows are compounds tested on DeltatarO mutant (assay: growth inhibition of S. aureus wild type versus tarO mutant, primary screen, teichoic acid synthesis inhibitors, RN4220, OD600 (AID 463173)). Conditions: OD600, 18 h, hits give low values, screened at 18.75 µg/mL (by protocol).
For `COCC(=O)N(Cc1cc2cc3c(cc2nc1Cl)OCO3)CC1CCCO1` (stereo not drawn), the survival was inactive: 92%. With `CCOc1ccccc1NC(=O)N1CCc2c(sc(C)c2CC)C1c1ccccc1` (stereo not drawn) the survival was inactive: 92%. For `COc1ccc(CNc2ncnc3onc(-c4ccc(F)cc4)c23)cc1`, the survival was inactive: 89%. With `CCCCNC(=O)CCCn1c(=O)c2ccccc2n(CC(=O)Nc2ccccc2OCC)c1=O` the survival was inactive: 89%. For `COc1cc(/C=C(\C#N)c2nc3ccccc3[nH]2)ccc1OCc1cccc(C(F)(F)F)c1`, the survival was inactive: 63%. In the case of `CCCc1cnc2c(c1SCC(=O)Nc1ccc(C)c(Cl)c1)c(=O)n(C)c(=O)n2C`, the survival is reported as inactive: 77%. `CCOc1ccccc1NC(=O)c1ccc(F)c(S(=O)(=O)NCc2ccc3c(c2)OCO3)c1` was tested, and the survival was inactive: 67%. `COc1cc(-c2nc3nc(C)cc(C)n3c2Nc2ccc(Cl)cc2)ccc1O` was tested, and the survival was inactive: 64%. For `COc1ccc2[nH]c(=O)c(CN(Cc3cccs3)S(=O)(=O)c3cccc4nsnc34)cc2c1`, the survival was inactive: 113%. With `COc1ccc(C(=O)Nc2ccc(-c3nnc4n3CCCCC4)cc2)cc1OC` the survival was inactive: 57%. `COc1ccc(Cn2c(C(=O)O)c(CNCc3ccc(C)o3)c3ccc(C)cc32)cc1` was tested, and the survival was inactive: 88%. `CCOC(=O)Nc1ccc2c(c1)Nc1ccccc1S2` was tested, and the survival was inactive: 80%. For `O=C(c1cc2ccc3cccnc3c2[nH]1)N1CCN(c2ccccc2)CC1`, the survival was inactive: 75%. In the case of `CCOc1ccccc1NC(=O)Cn1c(=O)ccc2cc(S(=O)(=O)N3CCCC3)ccc21`, the survival is reported as active: 0%. In the case of `CC(=O)N1CCc2nc3sc(C(=O)Nc4ccc(Cl)cc4F)c(N)c3c(C(F)(F)F)c2C1`, the survival is reported as inactive: 75%. In the case of `CCOc1ccccc1C(=O)NC1CCN(Cc2nnnn2C2CCCC2)CC1`, the survival is reported as inactive: 95%. `CC(Oc1ccccc1)C(=O)Nc1nnc2n1CCS2` (stereo not drawn) was tested, and the survival was inactive: 74%. With `CCCn1c2ccccc2c2cnn(CC(=O)N(CCCOC)Cc3ccco3)c(=O)c21` the survival was inactive: 88%. In the case of `Oc1ccccc1-c1nc(/C=C/c2ccc(F)cc2)nn1-c1ccccc1`, the survival is reported as active: 26%. `CC(=O)c1ccc(N2CCN(S(=O)(=O)c3ccc4c(c3)C(C)(C)C(=O)N4)CC2)cc1` was tested, and the survival was inactive: 64%. In the case of `COc1cccc(/C=C/C(=O)Nc2ccc3nc(N4CCN(C)CC4)cc(C)c3c2)c1OC`, the survival is reported as inactive: 79%. In the case of `CC(C)c1nc2ccc(C(=O)NC(C)c3ccccc3)cc2o1` (stereo not drawn), the survival is reported as inactive: 112%. For `Cc1cccc(NC(=O)N2CCCC2C(=O)Nc2ccccc2)c1` (stereo not drawn), the survival was inactive: 108%. `O=C(NC1CCCC1)c1ccc(CSc2nc3cccnc3n2Cc2ccc(F)cc2)cc1` was tested, and the survival was inactive: 63%. `CCOC(=O)c1ccc2ncc3c(-c4ccccc4)nn(-c4ccc(F)c(Cl)c4)c3c2c1` was tested, and the survival was inactive: 123%. For `O=S1(=O)c2ccccc2N(Cc2cccc(Cl)c2)c2ccccc21`, the survival was active: 0%. `COc1cccc(CNC(=O)C2CCN(c3nnc(-n4c(C)ccc4C)s3)CC2)c1OC` was tested, and the survival was inactive: 96%. `CCOc1ccc(-c2nc(CSCC(=O)NCc3ccc(Cl)cc3)c(C)o2)cc1` was tested, and the survival was inactive: 95%. For `CCN(CC)CCNC(=O)c1ccc2c(=O)n3nc(Nc4ccccc4OC)sc3nc2c1`, the survival was inactive: 124%. With `CC(=O)c1cc2c(cc1N/C(=N/S(=O)(=O)c1ccc(C)cc1)c1ccc(F)cc1)OCO2` the survival was inactive: 83%. In the case of `Cc1cc(NC(=O)CNCC2CCCCC2)no1`, the survival is reported as inactive: 108%. With `CC(C)CC(c1nnnn1C1CCCC1)N1CCC(C(N)=O)CC1` (stereo not drawn) the survival was inactive: 91%. With `Cc1c(C(=O)N2CCN(c3ccccc3)CC2)sc2nc3n(c(=O)c12)CCC3` the survival was inactive: 84%. `CC(C)CCNC(=O)CN1C(=O)CSc2ccc(S(=O)(=O)N3CCCCC3)cc21` was tested, and the survival was inactive: 80%. `CCc1ccc(S(=O)(=O)c2nnn3c2nc(NC(C)C)c2sccc23)cc1` was tested, and the survival was inactive: 83%. For `COc1ccc(CCNC(=O)c2ccc3c(c2)ncn3-c2ccc(C)cc2C)cc1OC`, the survival was inactive: 117%. For `Cc1cc(C(=O)NCc2ccccc2Cl)c2c(C)nn(-c3ccccc3)c2n1`, the survival was inactive: 82%. With `COc1cc(NC(=O)CSc2ncccc2C(=O)OC(C)C)cc(OC)c1` the survival was inactive: 78%. In the case of `COc1ccc(CCNC(=O)CS(=O)Cc2nc(-c3ccccc3F)oc2C)cc1OC` (stereo not drawn), the survival is reported as inactive: 83%. In the case of `COc1ccc(-c2nc(SCCOc3ccccc3Cl)n3[nH]c(=O)cc3n2)cc1`, the survival is reported as inactive: 78%. In the case of `CCN1C(C(=O)c2ccccc2)=C(OC(=O)c2ccccc2OC)c2ccccc2S1(=O)=O`, the survival is reported as inactive: 89%. With `CCOc1ccc(N2CC(NC(=O)c3ccc(S(=O)(=O)N4CCCCC4)cc3)CC2=O)cc1` (stereo not drawn) the survival was inactive: 79%. With `CCOc1ccccc1NC(=O)c1c(NC(=O)c2cccc(C)c2)sc2c1CCC2` the survival was inactive: 74%. `COc1cc(OC)c(NS(=O)(=O)c2ccc3c(c2)CCCN3C(C)=O)cc1Cl` was tested, and the survival was inactive: 83%. For `CCc1cc2c(cc3c(=O)n(CC(=O)NC4CCC(C)CC4)ncn32)s1` (stereo not drawn), the survival was inactive: 91%. `COc1cc2nc(NCc3ccc(C)cc3)n3nc(-c4ccccc4)nc3c2cc1OC` was tested, and the survival was inactive: 61%. For `Cc1ccc(NC(=O)c2ccc(-n3c(C)nnc3C)cc2)cc1F`, the survival was inactive: 119%. With `CCOC(=O)c1c(-c2ccc(C)cc2)csc1NC(=O)c1nc(SC(C)C)ncc1Cl` the survival was inactive: 61%. In the case of `CCc1ccccc1NC(=O)C1CCCN(C(=O)c2cnn(-c3ccccc3)c2-n2cccc2)C1` (stereo not drawn), the survival is reported as inactive: 56%. For `CCCc1nc(SCc2cc(=O)c3ccc(C)c(C)c3[nH]2)n[nH]1`, the survival was inactive: 107%. In the case of `COc1ccc(S(=O)(=O)N2CCN(Cc3nc4ccc(C)cc4o3)CC2)cc1Cl`, the survival is reported as inactive: 122%. For `CCC(C(=O)NCCc1ccccc1)n1nc(C)n2c(cc3sccc32)c1=O` (stereo not drawn), the survival was inactive: 77%. With `Cc1ccc(C)c(N2CCN(C(=O)c3cc4c(=O)n(Cc5ccccc5)ccc4nc3C)CC2)c1` the survival was inactive: 78%. In the case of `Cc1ccc2c(c1)N(C(=O)N1CCC(C(=O)NCCc3ccc(Cl)cc3)CC1)CC(C)O2` (stereo not drawn), the survival is reported as inactive: 81%. `Cc1ccc(-n2nc(C)c3c(C)c(CCC(=O)NCc4ccccc4Cl)c(C)nc32)cc1C` was tested, and the survival was inactive: 64%. For `CCOc1cccc2c1N[C@@H](c1ccc(C(=O)O)cc1)[C@H]1CC=C[C@@H]21`, the survival was inactive: 68%. With `Cc1cccc(NS(=O)(=O)c2ccc3[nH]c4c(c3c2)CCCCCC4)c1` the survival was inactive: 76%. `Cc1nc2sccn2c(=O)c1S(=O)(=O)Nc1cc(Cl)ccc1O` was tested, and the survival was inactive: 51%. With `CCOC(=O)c1cc(-c2ccc(F)cc2)n(CC(=O)NC2CCCCCC2)c1C` the survival was inactive: 76%. With `CC1(C)CC(=O)C=C(NCCc2ccccc2)C1` the survival was inactive: 104%. `Cc1ccc(CN(Cc2ccco2)C(=O)c2ccc(OCC(C)C)cc2)cc1` was tested, and the survival was inactive: 61%. `COc1ccc(NC(=O)c2c(NC(=O)COc3ccccc3)sc3c2CCC(C(C)(C)C)C3)cc1` (stereo not drawn) was tested, and the survival was inactive: 75%. With `C/C(=N/OC(=O)CSc1nc(-c2ccco2)cc(C(F)(F)F)n1)c1ccccc1` the survival was inactive: 104%. `CCCCN1CCc2nc(Nc3ccc(OC)cc3OC)ncc2C1` was tested, and the survival was inactive: 77%. With `Cc1nn(-c2ccc(F)cc2)c(-n2cccc2)c1C(=O)NCCc1ccc(Cl)cc1` the survival was inactive: 68%. With `Cc1cc(C)n2nc(CNS(=O)(=O)c3ccc(C)c(C)c3)nc2n1` the survival was inactive: 81%. For `CC(C)OCCCn1c(SCC(=O)c2ccccc2)nc2c(sc3ccccc32)c1=O`, the survival was inactive: 88%. In the case of `O=C(C1CCN(S(=O)(=O)c2cccc3nonc23)CC1)N1CCN(c2cccc(Cl)c2)CC1`, the survival is reported as inactive: 84%. In the case of `COc1ccc(NC(=O)CSc2nc3nc(C)c(Cc4ccccc4)c(C)n3n2)cc1OC`, the survival is reported as inactive: 67%. `Cc1ccc(Cn2c(=O)c3ccccc3n3c(-c4cccc(O)c4)nnc23)cc1` was tested, and the survival was inactive: 82%. For `CCN(CC)CCOC(=O)c1ccc(NC(=O)Cn2ncc3c2-c2cc(C)ccc2OC3)cc1`, the survival was inactive: 68%. For `Cc1cccc(Cn2cccc2CNS(=O)(=O)c2ccccc2F)c1`, the survival was active: -2%. With `CCc1ccc(CNC(=O)Cn2nc(C)n3c(cc4cc(C)ccc43)c2=O)cc1` the survival was inactive: 83%. `CCc1ccc(NC(=O)CN2C(=O)C(c3ccc(C)cc3)=NC23CCCCC3)cc1` was tested, and the survival was inactive: 82%. With `COc1ccc(NC(=O)C(Cc2ccccc2)NS(=O)(=O)c2ccc3c(c2)CCC(=O)N3)c(OC)c1` (stereo not drawn) the survival was inactive: 106%. For `CCCCOc1ccc(C2=NC(c3ccncc3)=Nc3ccc(OCC)cc3N2)cc1`, the survival was inactive: 75%. In the case of `CCOc1ccccc1CNC(=O)C1CCN(c2nnc(-n3c(C)ccc3C)s2)CC1`, the survival is reported as inactive: 97%. With `CCOC(=O)c1cccc(NC(=O)c2cc3ccccn3n2)c1` the survival was inactive: 124%. For `Cc1nonc1OCCNC(=O)C12CC3CC(CC(C3)C1)C2`, the survival was inactive: 84%. With `COc1ccc2sc(N(Cc3cccnc3)C(=O)C3CCCCC3)nc2c1` the survival was inactive: 72%. For `O=C(Cn1c(=O)n(CC2CCC(C(=O)NCCc3ccccc3)CC2)c(=O)c2ccccc21)Nc1ccccc1` (stereo not drawn), the survival was inactive: 107%. For `COc1cccc(-n2c(SCC(=O)Nc3c(C)cc(C)cc3C)nc3c([nH]c4ccccc43)c2=O)c1`, the survival was inactive: 95%. `Cc1ccc(C(c2nnnn2CS(=O)(=O)c2ccc(C)cc2)N2CCCC2)cc1` (stereo not drawn) was tested, and the survival was inactive: 98%. For `COC(=O)c1cc2oc3ccccc3c2n1CC(=O)Nc1ccc(Cl)cc1F`, the survival was inactive: 113%. With `O=C(Nc1ccccc1)N(C1=NCCCCS1)c1ccccc1` the survival was inactive: 76%. For `COc1cccc2c1cc1c(=O)n(CC(=O)NCc3ccc(C)o3)nc(C)n12`, the survival was inactive: 87%. In the case of `COc1cccc(CNC(=O)c2ccc(-c3nc(COc4ccccc4)c(C)o3)cc2)c1`, the survival is reported as inactive: 89%. With `Cc1ccc(CCNC(=O)c2cc3c(s2)-c2c(C)cccc2OC3)cc1` the survival was inactive: 93%.
